We go through 42 sequences from paper PMC7819943, “Rice protein-binding microarrays: a tool to detect cis-acting elements near promoter regions in rice”.

This is one part of the list.

For this assay, the target named is T1, OsWOX13 (Oryza sativa, UniProt Q5QMM3 1-267).
T1 sequence: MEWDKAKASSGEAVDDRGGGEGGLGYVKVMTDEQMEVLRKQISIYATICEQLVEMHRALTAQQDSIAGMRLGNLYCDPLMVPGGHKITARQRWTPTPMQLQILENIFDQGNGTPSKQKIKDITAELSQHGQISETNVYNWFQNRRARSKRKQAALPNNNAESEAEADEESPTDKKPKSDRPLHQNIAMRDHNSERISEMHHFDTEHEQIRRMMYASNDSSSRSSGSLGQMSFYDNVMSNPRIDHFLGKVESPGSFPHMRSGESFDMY
The assay can be described thus: protein-binding microarray (RPBM); PBS, 2% BSA, 51.3 ng/ul salmon testes DNA, 50 uM zinc acetate, 200 nM TF, 25 C, 1 h; high values mean tight binding. The note with it: protein: recombinant; tags: N-terminal polyhistidine and DsRed monomer fusion (pET32a); label: CyDye5-dUTP incorporated in the synthesized complementary strand; 3' TTTTT single-stranded linker to array surface; dsDNA, one strand shown. The method, boiled down:
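Binding signal is defined as the fluorescence intensity of each feature in arbitrary units, read on an Axon 4000B scanner. Transcription factors with N-terminal polyhistidine and DsRed fusions came from E. coli BL21-CodonPlus and were purified on Ni–NTA. They were incubated at 200 nM for 1 h at 25 °C on a custom Agilent array that had been made double-stranded with Cy5-dUTP, with 50 µM zinc acetate present, and the array was washed.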
As for “CAGTAATCAGCCGCTAATCGTGGATTAATATACATCATTACGGAGTCACCTAGTGCAG”, the binding signal was 10300 fluorescence intensity (a.u.).

On to “GCTTAATGGGCCCCACCGTGCTATCTCGCTGATTCGGCCCCGGAGTCACCTAGTGCAG”, for which the binding signal was 3940 fluorescence intensity (a.u.).

With “ACATGACATGAAAATTTCAGAGTTGCAAGCTAACACGAACCGGAGTCACCTAGTGCAG”, the binding signal was 3980 fluorescence intensity (a.u.).

Turning to “TTTTGATCACACCATGATTGATGCACAAATCCATATGAACCGGAGTCACCTAGTGCAG”, the binding signal was 36800 fluorescence intensity (a.u.).

On to “GGTAGAGGCAGGTAATTGGGAGGGAATTACTCATTTATTTCGGAGTCACCTAGTGCAG”, for which the binding signal was 5610 fluorescence intensity (a.u.).

As to “TTTAATTGCCCACTAGCAAGGATTTGAACTCGAGGCGTCTCGGAGTCACCTAGTGCAG”, the binding signal was 11300 fluorescence intensity (a.u.).

Turning to “ATTAATAGATACAATTGCCTTCTTAGGACTCTATCCATGTCGGAGTCACCTAGTGCAG”, the binding signal is 20900 fluorescence intensity (a.u.).

With “GCATAACTAATTGTTGTTGCACATATTTTCTTTATAAAGCCGGAGTCACCTAGTGCAG”, the binding signal is 15500 fluorescence intensity (a.u.).

As to “TTTGATTTCAACAGATTTATAATGGCATTCTTCCAATTAGCGGAGTCACCTAGTGCAG”, the binding signal was 19500 fluorescence intensity (a.u.).

Regarding “ACATAATTTATATCAAGTTTGCAATTGATTCCCTTTGGATCGGAGTCACCTAGTGCAG”, the binding signal is 30900 fluorescence intensity (a.u.).

“ATTGATAGATGCTACATCTAGCCAAACTTCTTCCTTTACCCGGAGTCACCTAGTGCAG”: the binding signal was 22800 fluorescence intensity (a.u.).

Regarding “ACGGTAATTTAGCAGTACACCGATTGTCTGGATTAAGTTACGGAGTCACCTAGTGCAG”, the binding signal was 9990 fluorescence intensity (a.u.).

Consider “TATAATTGCTACGTAAGCGCCACGTCAATGCCATGTCAGACGGAGTCACCTAGTGCAG”, for which the binding signal was 17200 fluorescence intensity (a.u.).

For the sequence “TATCATGGGATAGATGCTAATCACGTTGAAGTGACTAGATCGGAGTCACCTAGTGCAG”, the binding signal was 9750 fluorescence intensity (a.u.).

In the case of “TTATATGATATGATAATCAGTATGGAACGGAGCGAGTAGTCGGAGTCACCTAGTGCAG”, the binding signal was 3990 fluorescence intensity (a.u.).

As to “TGTGGACAATGATTAGCACAAACTTATCCTCCGTAATTTGCGGAGTCACCTAGTGCAG”, the binding signal was 17100 fluorescence intensity (a.u.).

Take “AAAATAGTTAATACTCAATTAATTATGAGTTAATGGCTTACGGAGTCACCTAGTGCAG”: the binding signal is 15300 fluorescence intensity (a.u.).

As for “ACTCCACCACTGTTAATTATTTCTAAAATGGACAAGAAAACGGAGTCACCTAGTGCAG”, the binding signal was 3960 fluorescence intensity (a.u.).

On to “TATAATTGATGTACATCGATGATTAATTCTCTAACAGATCCGGAGTCACCTAGTGCAG”, for which the binding signal is 62300 fluorescence intensity (a.u.).

As for “GTGTTAATTTGGCAGCGTGTGCTGTTCACTTGTACATTACCGGAGTCACCTAGTGCAG”, the binding signal was 11100 fluorescence intensity (a.u.).

Turning to “CTAGATTGATTTCTGCCAAACCGACGAAATTCATTTGTACCGGAGTCACCTAGTGCAG”, the binding signal is 46200 fluorescence intensity (a.u.).

Consider “AAGTTAAACCAAACCCAATCAATCGGTTTAACTCAAAATCCGGAGTCACCTAGTGCAG”, for which the binding signal is 5520 fluorescence intensity (a.u.).

For the sequence “ACAAACATCAAGTCAGCTAAATTAGCACGCACAAATCCAACGGAGTCACCTAGTGCAG”, the binding signal is 6380 fluorescence intensity (a.u.).

As for “CCTAATTGCGTCATGATTTGACAATGTAGTGCTACAGTAACGGAGTCACCTAGTGCAG”, the binding signal was 50800 fluorescence intensity (a.u.).

As to “TAGTAGATTGATTTCCTTAACCGAATATAGCAGGAATCCGCGGAGTCACCTAGTGCAG”, the binding signal was 52900 fluorescence intensity (a.u.).

In the case of “TTGCTAAATGATATCAATTAAACGGTGTATCAATTCCATACGGAGTCACCTAGTGCAG”, the binding signal was 21400 fluorescence intensity (a.u.).

For the sequence “GTAGATGGATAGCTATTTCGATTTTATTTACCGATCTTCTCGGAGTCACCTAGTGCAG”, the binding signal was 3640 fluorescence intensity (a.u.).

With “GCCTATATCAATGCCACATTAATTGCCAGTTTGCCACGGTCGGAGTCACCTAGTGCAG”, the binding signal was 18400 fluorescence intensity (a.u.).

Consider “GTAAATAGATAATACTGACTTTTGATGCAATCCAGGTGAGCGGAGTCACCTAGTGCAG”, for which the binding signal is 19400 fluorescence intensity (a.u.).

On to “CATGACTAAATTTAGAGTAAATCCCTTGTATACCCATGAACGGAGTCACCTAGTGCAG”, for which the binding signal is 27100 fluorescence intensity (a.u.).

For the sequence “TAGTGACAAATCACAAAGCAAATTAAAATGGTGGGTACATCGGAGTCACCTAGTGCAG”, the binding signal is 4940 fluorescence intensity (a.u.).

For “AGTATATTAATTAAAGACTTAACATGAAAGCTTGCATGTTCGGAGTCACCTAGTGCAG”, the binding signal is 24300 fluorescence intensity (a.u.).

In the case of “TTTGATTCTTTTAAATTAAATAATTTTAAAGTCATTGATACGGAGTCACCTAGTGCAG”, the binding signal is 21100 fluorescence intensity (a.u.).

As for “ACATAATTACAATTTCAACCAAATTTTCAATTTTAGCTTGCGGAGTCACCTAGTGCAG”, the binding signal was 23700 fluorescence intensity (a.u.).

On to “CGGCCAAAATTGTAATTAGCCCCTTGCCGCCCTCTGTATGCGGAGTCACCTAGTGCAG”, for which the binding signal is 10400 fluorescence intensity (a.u.).

“TTCTTCTGCACATAATTTGTATTTGATGCACTAACCAAGTCGGAGTCACCTAGTGCAG”: the binding signal is 3790 fluorescence intensity (a.u.).

In the case of “AGATTAACAAAATTTTGAAGGATGTTTTCTACCAAATGCCCGGAGTCACCTAGTGCAG”, the binding signal was 6050 fluorescence intensity (a.u.).

Consider “GATTTAATTATATAGTCCCACATTTCTCTTGGATTGTTTACGGAGTCACCTAGTGCAG”, for which the binding signal is 14800 fluorescence intensity (a.u.).

For “CAAATAGTAAATTACTACTCCAGTGAAAATATAGTACTGCCGGAGTCACCTAGTGCAG”, the binding signal was 6260 fluorescence intensity (a.u.).

Turning to “AAAACTCAATCAAATTGGGCCGTCCCTCCCCTTTCTCTTCCGGAGTCACCTAGTGCAG”, the binding signal was 5810 fluorescence intensity (a.u.).

For the sequence “TAGAGATTTGACAAGACGACATTCCCCTAGACAGTGTTCTCGGAGTCACCTAGTGCAG”, the binding signal was 4390 fluorescence intensity (a.u.).

Turning to “CTCCGGTTTAATTTTAATTGATGTTTTGGACAATGGCACGCGGAGTCACCTAGTGCAG”, the binding signal is 44900 fluorescence intensity (a.u.).
